The molecules below were run against PRMT5/MEP50 Complex (Homo sapiens (Human), UniProt O14744) (assay: PRMT5 inhibition based on TR-FRET assay). Conditions: 32 nM PRMT5:MEP50, 50 nM Histone-H4 peptide, 1 μM SAM.
Format: biochemical
Text: PRMT5 Inhibition Based on TR-FRET Assay:
Protein arginine methyltransferase 5 (PRMT5) is a type II arginine methyltransferase that catalyze mono- and symmetric demethylation on arginine residues of histone or non-histone proteins in presence of S-adenosylmethionine (AdoMet or SAM) a cofactor responsible for donating the methyl group. PRMT5 is reported to be overexpressed in several human cancers. To identify compounds that inhibit the PRMT5 and decrease its activity, a TR-FRET based assay has been established. Time-resolved fluorescence resonance energy transfer (TR-FRET) HTS assays are homogeneous proximity assays where the interaction of two dye-labeled binding partners is detected by the energy transfer between a donor and an acceptor dye and the subsequent light emission by the acceptor dye. PRMT5 catalyzes Histone H4 peptide which is biotin tagged to the Lysine amino acid at carboxyl end, in presence of S-adenosyl-1-methionine (SAM) to methylate the peptide. The antibody specific to mono methylated H4 peptide (H4R3) with Ig conjugate binds to the methylated peptide, indirectly binding to the Europium lanthanide. SureLight Allophycocyanin-Streptavidin binds to the biotin tag of the peptide, therefore accepting the energy transferred from the Europium lanthanide. This energy transfer between Europium to SureLight Allophycocyanin is a direct measure of the activity/inhibition of the PRMT5 enzyme.
Assay buffer: 20 mM BICINE (pH 7.6), 25 mM NaCl, 2 mM DTT, 0.01% Tween-20 and 0.01% BSA.
The compound dilutions were prepared as 7.5% DMSO stock solutions in assay buffer. To 2 μL (7.5×) of test compound, 5 μL of PRMT5 enzyme prepared in assay buffer (Final concentration of 32 nM in 15 μL reaction volume) was added and allowed for 30 minutes pre-incubation time in a white polystyrene 384-well plate at room temperature. […] The plates were then read on Victor-3 with Excitation at 340 nm and Emissions collected at 615 and 665 nm in TR-FRET protocol. […]

Chain of UniProt O14744 (O14744 whole entry): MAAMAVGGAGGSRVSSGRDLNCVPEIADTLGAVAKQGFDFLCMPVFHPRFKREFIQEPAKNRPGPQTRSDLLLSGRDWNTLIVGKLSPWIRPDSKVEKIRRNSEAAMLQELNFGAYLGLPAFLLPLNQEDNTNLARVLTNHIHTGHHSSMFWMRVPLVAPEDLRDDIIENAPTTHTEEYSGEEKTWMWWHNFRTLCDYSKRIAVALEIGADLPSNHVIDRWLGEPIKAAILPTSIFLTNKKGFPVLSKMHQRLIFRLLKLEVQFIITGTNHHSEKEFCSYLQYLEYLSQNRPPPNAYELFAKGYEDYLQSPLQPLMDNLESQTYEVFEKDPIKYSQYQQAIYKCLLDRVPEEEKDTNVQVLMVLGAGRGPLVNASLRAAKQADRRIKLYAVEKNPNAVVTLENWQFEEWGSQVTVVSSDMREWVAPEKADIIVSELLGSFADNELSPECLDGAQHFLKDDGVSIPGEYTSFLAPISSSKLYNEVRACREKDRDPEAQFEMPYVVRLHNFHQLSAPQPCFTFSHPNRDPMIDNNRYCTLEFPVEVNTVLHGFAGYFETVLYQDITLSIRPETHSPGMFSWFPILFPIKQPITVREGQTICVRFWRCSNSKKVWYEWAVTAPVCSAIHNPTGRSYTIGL
Chain of UniProt O14744 (Q9BQA1 whole entry partner): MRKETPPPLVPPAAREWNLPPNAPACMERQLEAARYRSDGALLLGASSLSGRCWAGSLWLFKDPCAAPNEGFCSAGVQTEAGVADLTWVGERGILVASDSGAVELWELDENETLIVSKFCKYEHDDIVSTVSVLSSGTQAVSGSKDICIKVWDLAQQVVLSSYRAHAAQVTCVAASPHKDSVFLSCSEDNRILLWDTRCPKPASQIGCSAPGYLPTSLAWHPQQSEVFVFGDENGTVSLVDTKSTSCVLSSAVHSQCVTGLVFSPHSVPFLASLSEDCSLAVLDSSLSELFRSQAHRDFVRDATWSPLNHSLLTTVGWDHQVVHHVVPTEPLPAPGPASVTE

| SMILES | IC50 |
| --- | --- |
| Cc1ccc(CN2CC(C)(C)N(CC(O)CN3CCc4ccccc4C3)C2=O)cc1 (stereo not drawn) [Example 5, 3-(3-(3,4-dihydroisoquinolin-2(1H)-yl)-2-hydroxypropyl)-4,4-dimethyl-1-(4-methylbenzyl)imidazolidin-2-one] | 0.11 µM |
| N#Cc1ccc(Cn2ccn(CC(O)CN3CCc4ccccc4C3)c2=O)cc1 (single isomer, unassigned) [Example 82b, 4-((3-(3-(3,4-dihydroisoquinolin-2(1H)-yl)-2-hydroxypropyl)-2-oxo-2,3-dihydro-1H-imidazol-1-yl)methyl)benzonitrile] | 0.12 µM |
| CC1(C)CN(Cc2ccc(C#N)cc2)C(=O)N1CC(O)CN1CCc2ccccc2C1 (stereo not drawn) [Example 2] | 0.03 µM |

From patent US11365205B2 (Aurigene Discovery Technologies Limited, priority 2018, dated 2022)
